To fix the notation:
B1: Caulobacter ParB omega fusion; a variant is named by its letters at X, in order, B8GW30 (parent)
chain: MESVVVGEPGMSEGRRGLGRGLSALLGEVDAAPAQAPGEQLGGSREAPIEILQRNPDQPRRTFREEDLEDLSNSIREKGVLQPILVRPSPDTAGEYQIVAGERAWRAAQRAGLKTVPIMVRELDDLAVLEIGIIENVQRADLNVLEEALSYKVLMEKFERTQENIAQTIGKSXSHVANXMRLLXLPDEVQSYLVSGELTAXHARAIAAAADPVALAKQIIEGGLSVRETEALARKAPNLSAGKSKGGRPPRVKDTDTQALESDLSSVLGLDVSIDHRGSTGTLTITYATLEQLDDLCNRLTRGI

In all, about 81,000 sequences were measured (“one-hybrid fitness for binding parS DNA”: median about -0.17, highest 2% from about 0.51 on). This is one part of the list.

In the assay the parent is B1. Nature of the assay: one-hybrid fitness for binding parS DNA (scaled: cognate 1, non-cognate 0); higher = stronger binding. As to conditions: with parS DNA site. A digest of the protocol:
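Bacterial one-hybrid selection in E. coli USO rpoZ- hisB- pyrF- with a HIS3 reporter carrying the site 19 bp from the promoter, screening Caulobacter ParB libraries with four specificity codons randomised (NNS). Cells grew 48 hours at 37°C on M9-minus-histidine plus 0.1 mM IPTG and 5 mM 3-AT. Plasmids before and after selection were Illumina-sequenced, three replicate libraries pooled, and variants under 10 reads dropped. Fitness is the log change in variant-to-wild-type read ratio, rescaled to cognate 1, non-cognate 0.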
Regarding RYQP, the “one-hybrid fitness for binding parS DNA” value is at most 0.2. The figure for LEFS is at most 0.2; for PNTP it is at most 0.2; for SRIH it is at most 0.2.

LFDE: the “one-hybrid fitness for binding parS DNA” value is at most 0.2. Turning to MMIS, the “one-hybrid fitness for binding parS DNA” value was at most 0.2. Take ELCL: the “one-hybrid fitness for binding parS DNA” value was at most 0.2. Regarding IDHN, the “one-hybrid fitness for binding parS DNA” value is at most 0.2.

With RGMV, the “one-hybrid fitness for binding parS DNA” value is at most 0.2. In the case of EFPF, the “one-hybrid fitness for binding parS DNA” value was at most 0.2. Turning to YQPD, the “one-hybrid fitness for binding parS DNA” value is at most 0.2.

Regarding YPSY, the “one-hybrid fitness for binding parS DNA” value was at most 0.2. On to LHTC, for which the “one-hybrid fitness for binding parS DNA” value is at most 0.2. With WAWL, the “one-hybrid fitness for binding parS DNA” value was at most 0.2. In the case of NRMA, the “one-hybrid fitness for binding parS DNA” value was at most 0.2. For QQEM, the “one-hybrid fitness for binding parS DNA” value was at most 0.2. In the case of FQYS, the “one-hybrid fitness for binding parS DNA” value was at most 0.2. Regarding RNVQ, the “one-hybrid fitness for binding parS DNA” value was at most 0.2. As for DYNT, the “one-hybrid fitness for binding parS DNA” value was at most 0.2. Turning to QRHA, the “one-hybrid fitness for binding parS DNA” value is at most 0.2.

RMIC: the “one-hybrid fitness for binding parS DNA” value came out at 0.926. With ICTE, the “one-hybrid fitness for binding parS DNA” value was at most 0.2. KFSM: the “one-hybrid fitness for binding parS DNA” value is at most 0.2.

With SEHA, the “one-hybrid fitness for binding parS DNA” value was at most 0.2. The same measure for QIVC: at most 0.2; for DRQS: at most 0.2; for SESN: at most 0.2. For the variant STNM, the “one-hybrid fitness for binding parS DNA” value was at most 0.2.

As to SCAS, the “one-hybrid fitness for binding parS DNA” value was at most 0.2.

Consider VQEP, for which the “one-hybrid fitness for binding parS DNA” value is at most 0.2. Turning to QHLR, the “one-hybrid fitness for binding parS DNA” value is at most 0.2. As for QHGQ, the “one-hybrid fitness for binding parS DNA” value is at most 0.2. PSVC: the “one-hybrid fitness for binding parS DNA” value is at most 0.2.

On to VGHG, for which the “one-hybrid fitness for binding parS DNA” value was at most 0.2. Regarding FLIS, the “one-hybrid fitness for binding parS DNA” value was at most 0.2. The same measure for FKRL: at most 0.2. The figure for KYST is at most 0.2. The figure for HSTT is at most 0.2; for AVWR it is at most 0.2. For EHDV, the “one-hybrid fitness for binding parS DNA” value is at most 0.2.

In the case of IVNG, the “one-hybrid fitness for binding parS DNA” value was at most 0.2. The figure for CIVL is at most 0.2.

For the variant VAPS, the “one-hybrid fitness for binding parS DNA” value was at most 0.2.

Turning to HFRT, the “one-hybrid fitness for binding parS DNA” value is at most 0.2. For the variant QWVM, the “one-hybrid fitness for binding parS DNA” value is at most 0.2. The same measure for ECHA: at most 0.2.

On to GLKN, for which the “one-hybrid fitness for binding parS DNA” value was at most 0.2. The figure for QATN is at most 0.2; for HPIY it is at most 0.2.

Take CEVL: the “one-hybrid fitness for binding parS DNA” value is at most 0.2. Consider EFKR, for which the “one-hybrid fitness for binding parS DNA” value was at most 0.2. For VTRM, the “one-hybrid fitness for binding parS DNA” value is at most 0.2.

As for QPNI, the “one-hybrid fitness for binding parS DNA” value is at most 0.2. Take SGLV: the “one-hybrid fitness for binding parS DNA” value was at most 0.2.

With HVNV, the “one-hybrid fitness for binding parS DNA” value is at most 0.2. The figure for HCEV is at most 0.2; for YQPR it is at most 0.2; for YSAR it is at most 0.2. In the case of RWCF, the “one-hybrid fitness for binding parS DNA” value was at most 0.2. For PSPS, the “one-hybrid fitness for binding parS DNA” value is at most 0.2. NRTD: the “one-hybrid fitness for binding parS DNA” value is at most 0.2. The same measure for LGKA: at most 0.2; for SHSY: at most 0.2. On to MGER, for which the “one-hybrid fitness for binding parS DNA” value was at most 0.2. The same measure for CFHL: at most 0.2; for LHDT: at most 0.2. For the variant PAGL, the “one-hybrid fitness for binding parS DNA” value is at most 0.2. The same measure for DTQS: at most 0.2. YSYR: the “one-hybrid fitness for binding parS DNA” value was at most 0.2. The figure for PAIL is at most 0.2; for RNYG it is 0.789. As to NHSW, the “one-hybrid fitness for binding parS DNA” value was at most 0.2. For the variant LVWA, the “one-hybrid fitness for binding parS DNA” value was at most 0.2. HTMS: the “one-hybrid fitness for binding parS DNA” value was at most 0.2. Take KRFW: the “one-hybrid fitness for binding parS DNA” value was at most 0.2.

YVNI: the “one-hybrid fitness for binding parS DNA” value was at most 0.2. The same measure for QQRL: at most 0.2. Consider TSAC, for which the “one-hybrid fitness for binding parS DNA” value is at most 0.2. With TTSG, the “one-hybrid fitness for binding parS DNA” value was at most 0.2. AIKK: the “one-hybrid fitness for binding parS DNA” value was at most 0.2. The figure for SIGI is at most 0.2. Turning to PYRD, the “one-hybrid fitness for binding parS DNA” value was at most 0.2.

With TKYS, the “one-hybrid fitness for binding parS DNA” value is at most 0.2. Take YTPM: the “one-hybrid fitness for binding parS DNA” value was at most 0.2. As for KKRF, the “one-hybrid fitness for binding parS DNA” value is at most 0.2.

Consider MIRN, for which the “one-hybrid fitness for binding parS DNA” value was at most 0.2. The same measure for RIVE: at most 0.2; for TIKF: at most 0.2. The same measure for SYCE: at most 0.2. As for HNPL, the “one-hybrid fitness for binding parS DNA” value was at most 0.2. On to ESDI, for which the “one-hybrid fitness for binding parS DNA” value is at most 0.2. For the variant APTS, the “one-hybrid fitness for binding parS DNA” value was at most 0.2. On to PPGM, for which the “one-hybrid fitness for binding parS DNA” value is at most 0.2. On to EGGH, for which the “one-hybrid fitness for binding parS DNA” value is at most 0.2. As for PQQR, the “one-hybrid fitness for binding parS DNA” value is at most 0.2. With DQRC, the “one-hybrid fitness for binding parS DNA” value was at most 0.2.

Take LELA: the “one-hybrid fitness for binding parS DNA” value was at most 0.2. As for QLVT, the “one-hybrid fitness for binding parS DNA” value is at most 0.2. In the case of PTKV, the “one-hybrid fitness for binding parS DNA” value is at most 0.2. The same measure for KCFF: at most 0.2; for QDQS: at most 0.2; for QMRV: at most 0.2. With HALA, the “one-hybrid fitness for binding parS DNA” value is at most 0.2. On to KTHG, for which the “one-hybrid fitness for binding parS DNA” value is at most 0.2. NVKC: the “one-hybrid fitness for binding parS DNA” value was at most 0.2. The figure for EWKD is at most 0.2; for TQMT it is at most 0.2; for STGQ it is at most 0.2. YCRC: the “one-hybrid fitness for binding parS DNA” value is at most 0.2. As for CGVT, the “one-hybrid fitness for binding parS DNA” value is at most 0.2. With HTHG, the “one-hybrid fitness for binding parS DNA” value is at most 0.2. The figure for NGDG is at most 0.2; for QMKA it is at most 0.2. Regarding PADW, the “one-hybrid fitness for binding parS DNA” value was at most 0.2. LHKT: the “one-hybrid fitness for binding parS DNA” value is at most 0.2. On to TYFP, for which the “one-hybrid fitness for binding parS DNA” value is at most 0.2. Take SKGV: the “one-hybrid fitness for binding parS DNA” value was at most 0.2.

HRKA: the “one-hybrid fitness for binding parS DNA” value was at most 0.2. With QYDH, the “one-hybrid fitness for binding parS DNA” value was at most 0.2. As to SCIG, the “one-hybrid fitness for binding parS DNA” value was at most 0.2. For the variant KTRG, the “one-hybrid fitness for binding parS DNA” value is at most 0.2. In the case of IETT, the “one-hybrid fitness for binding parS DNA” value was at most 0.2.

For FVLC, the “one-hybrid fitness for binding parS DNA” value was at most 0.2. As to SHAR, the “one-hybrid fitness for binding parS DNA” value was at most 0.2. The figure for DVHS is at most 0.2; for AFTM it is at most 0.2. Consider SNKD, for which the “one-hybrid fitness for binding parS DNA” value was at most 0.2. The figure for IHAA is at most 0.2; for NISC it is at most 0.2.

For TSHI, the “one-hybrid fitness for binding parS DNA” value is at most 0.2. The figure for RVEV is at most 0.2. Regarding PNRS, the “one-hybrid fitness for binding parS DNA” value was at most 0.2.

On to DNAI, for which the “one-hybrid fitness for binding parS DNA” value is at most 0.2. On to YADL, for which the “one-hybrid fitness for binding parS DNA” value is at most 0.2. The figure for QPCG is at most 0.2. Consider TVTH, for which the “one-hybrid fitness for binding parS DNA” value is at most 0.2. The same measure for QPYC: at most 0.2. The figure for SSGT is at most 0.2; for QFIR it is at most 0.2. Regarding PWLR, the “one-hybrid fitness for binding parS DNA” value is at most 0.2. With SLHM, the “one-hybrid fitness for binding parS DNA” value was at most 0.2. The figure for AAFS is at most 0.2.

Take QKWV: the “one-hybrid fitness for binding parS DNA” value is at most 0.2. Take YGKS: the “one-hybrid fitness for binding parS DNA” value was at most 0.2. For the variant QQIC, the “one-hybrid fitness for binding parS DNA” value was at most 0.2. The same measure for LHTS: at most 0.2; for SASP: at most 0.2; for EFTQ: at most 0.2. As for KRPA, the “one-hybrid fitness for binding parS DNA” value was at most 0.2. With NCFT, the “one-hybrid fitness for binding parS DNA” value was at most 0.2. The figure for IHES is at most 0.2.

Take PPQP: the “one-hybrid fitness for binding parS DNA” value was at most 0.2. The same measure for QISA: at most 0.2.

The values are drawn from a collection of fitness landscapes (doi:10.1016/j.celrep.2020.107928).
